Test system: Huh7 cells that stably maintain a subgenomic HCV replicon (S22.3 cell-line)
Experiment: Cell based HCV RNA replication assay (S22.3 replicon cells, real-time RT-PCR)
Settings: Hepatitis C virus
[1] = Huh-7, 72 h, S22.3 cells, 72 hours incubation, HCV RNA by RT-PCR

SMILES	EC50 (Huh-7, Table 6) [nM]	other results
Cn1c(-c2nccs2)c(C2CCCC2)c2ccc(C(=O)NC3(C(=O)Nc4ccc(-c5ccc(C(=O)O)o5)cc4)CCC3)cc21 [Entry 7047]		EC50 (Huh-7, Table 7): < 500 nM
Cc1ccc(-c2c(C3CCCC3)c3ccc(C(=O)NC4(C(=O)Nc5ccc6c(c5)cc(C(=O)O)n6C)CCC4)cc3n2C)nc1 [Entry 7031]		EC50 (Huh-7, Table 7): < 500 nM
Cc1c(C(=O)O)sc2ccc(NC(=O)C3(NC(=O)c4ccc5c(C6CCCCC6)c(-c6ccoc6)[nH]c5c4)CCCC3)cc12 [Entry 2046]		EC50 [1]: < 500 nM
Cn1c(-c2cccc(N)c2)c(C2CCCC2)c2ccc(C(=O)NC3(C(=O)Nc4ccc(/C=C/C(=O)O)cc4)CCCC3)cc21 [Entry 6052]	< 500	
Cn1c(-c2csc(Nc3ccncc3)n2)c(C2CCCC2)c2ccc(C(=O)NC(C)(C)C(=O)Nc3ccc(/C=C/C(=O)O)cc3)cc21 [Entry 6022]	< 500	
O=C(N[C@@H](Cc1c[nH]c2ccc(O)cc12)c1cscn1)c1ccc2c(C3CCCCC3)c(-c3ccccn3)[nH]c2c1 [Entry 1003]		EC50 [1]: 500 to 5000 nM
COc1cccc(-c2c(C3CCCC3)c3ccc(C(=O)NC4(C(=O)Nc5ccc(/C=C/C(=O)O)cc5)CCC4)cc3n2C)n1 [Entry 6043]	< 500	
Cc1ccc(-c2c(C3CCCC3)c3ccc(C(=O)NC4(C(=O)Nc5ccc(/C=C/C(=O)O)cc5)CCN(C)CC4)cc3n2C)cn1 [Entry 6062]	< 500	
CN(C)CCNc1nc(-c2c(C3CCCC3)c3ccc(C(=O)NC(C)(C)C(=O)Nc4ccc(/C=C/C(=O)O)cc4)cc3n2C)cs1 [Entry 6035]	< 500	
CCNc1nc(-c2c(C3CCCC3)c3ccc(C(=O)NC(C)(C)C(=O)Nc4ccc(/C=C/C(=O)O)cc4)cc3n2C)cs1 [Entry 6010]	< 500	
Cn1c(-c2ccsc2)c(C2CCCC2)c2ccc(C(=O)NC3(C(=O)Nc4ccc(-c5ccc(C(=O)O)o5)cc4)CCCC3)cc21 [Entry 7052]		EC50 (Huh-7, Table 7): < 500 nM
CCc1ccnc(-c2c(C3CCCC3)c3ccc(C(=O)NC4(C(=O)Nc5ccc(/C=C/C(=O)O)cc5)CCCC4)cc3n2C)c1 [Entry 6067]	500 to 5000	
CC(C)(NC(=O)c1ccc2c(C3CCCCC3)c(-c3ccsc3)[nH]c2c1)C(=O)Nc1ccc(-c2nc(C(=O)O)cs2)cc1 [Entry 2019]		EC50 [1]: 500 to 5000 nM
Cn1c(-c2cccc(N)n2)c(C2CCCC2)c2ccc(C(=O)NC3(C(=O)Nc4ccc(/C=C/C(=O)O)cc4)CC3)cc21 [Entry 6037]	< 500	
Cn1c(-c2ccccn2)c(C2CCCC2)c2ccc(C(=O)NC3(C(=O)Nc4ccc5c(Cl)c(C(=O)O)sc5c4)CCC3)cc21 [Entry 7007]		EC50 (Huh-7, Table 7): < 500 nM
CC(C)C(=O)Nc1nc(-c2c(C3CCCC3)c3ccc(C(=O)NC4(C(=O)Nc5ccc(/C=C/C(=O)O)cc5)CCC4)cc3n2C)cs1 [Entry 6079]	< 500	
Cn1c(-c2cccc(N)c2)c(C2CCCC2)c2ccc(C(=O)NC3(C(=O)Nc4ccc(-c5ccc(C(=O)O)o5)cc4)CCCC3)cc21 [Entry 7013]		EC50 (Huh-7, Table 7): < 500 nM
CC(=O)N1CCC(NC(=O)c2ccc3c(C4CCCCC4)c(-c4ccoc4)[nH]c3c2)(C(=O)Nc2ccc(/C=C/C(=O)O)cc2)CC1 [Entry 2055]		EC50 [1]: < 500 nM
Cn1c(C(=O)O)cc2cc(NC(=O)C3(NC(=O)c4ccc5c(C6CCCC6)c(-c6cccc(N)c6)n(C)c5c4)CCC3)ccc21 [Entry 7015]		EC50 (Huh-7, Table 7): < 500 nM
Cc1ccc(-c2c(C3CCCC3)c3ccc(C(=O)NC4(C(=O)Nc5ccc(/C=C/C(=O)O)cc5)CCCC4)cc3n2C)cn1 [Entry 6061]	< 500	
CCCNc1nc(-c2c(C3CCCC3)c3ccc(C(=O)NC4(C(=O)Nc5ccc(/C=C/C(=O)O)cc5)CCCC4)cc3n2C)cs1 [Entry 6091]	< 500	
Cc1nc([C@H](Cc2c[nH]c3ccc(O)cc23)NC(=O)c2ccc3c(C4CCCC4)c(-c4ccoc4)sc3c2)cs1 [Entry 1024]		EC50 [1]: 500 to 5000 nM

SMILES	EC50 (Huh-7, Table 6) [nM]	other results
Cn1c(-c2nccs2)c(C2CCCC2)c2ccc(C(=O)NC3(C(=O)Nc4ccc(/C=C/C(=O)O)cc4)CCCC3)cc21 [Entry 6051]	< 500	
Cc1nc(-c2c(C3CCCC3)c3ccc(C(=O)NC4(C(=O)Nc5ccc(/C=C/C(=O)O)cc5)CCCC4)cc3n2C)cs1 [Entry 6090]	< 500	
CC(C)Cn1c(-c2ccoc2)c(C2CCCCC2)c2ccc(C(=O)NC(C)(C)C(=O)Nc3ccc(/C=C/C(=O)O)cc3)cc21 [Entry 2021]		EC50 [1]: 500 to 5000 nM
Cn1c(-c2ccccn2)c(C2CCCCC2)c2ccc(C(=O)NC3(C(=O)Nc4ccc(/C=C/C(=O)O)cc4)CCC3)cc21 [Entry 2090]		EC50 [1]: < 500 nM
Cc1nc(-c2c(C3CCCC3)c3ccc(C(=O)NC4(C(=O)Nc5ccc(/C=C/C(=O)O)cc5)CCC4)cc3n2C)cs1 [Entry 6075]	< 500	
Cn1c(-c2ccccn2)c(C2CCCC2)c2ccc(C(=O)NC3(C(=O)Nc4ccc(/C=C/C(=O)O)cc4)CCN(S(C)(=O)=O)CC3)cc21 [Entry 6125]	< 500	
Cn1c(-c2csc(-c3cccs3)n2)c(C2CCCC2)c2ccc(C(=O)NC(C)(C)C(=O)Nc3ccc(/C=C/C(=O)O)cc3)cc21 [Entry 6019]	< 500	
Cn1c(-c2ccccn2)c(C2CCCCC2)c2ccc(C(=O)NC3(C(=O)Nc4ccc(-c5cnc(N)nc5)cc4)CCC3)cc21 [Entry 2113]		EC50 [1]: < 500 nM
CC(C)OC(=O)Nc1nc(-c2c(C3CCCC3)c3ccc(C(=O)NC(C)(C)C(=O)Nc4ccc(/C=C/C(=O)O)cc4)cc3n2C)cs1 [Entry 6028]	< 500	
CCCNc1nc(-c2c(C3CCCC3)c3ccc(C(=O)NC(C)(C)C(=O)Nc4ccc(/C=C/C(=O)O)cc4)cc3n2C)cs1 [Entry 6014]	< 500	
CCN1CCC(NC(=O)c2ccc3c(C4CCCCC4)c(-c4ccccn4)n(C)c3c2)(C(=O)Nc2ccc3c(c2)cc(C(=O)O)n3C)CC1 [Entry 2092]		EC50 [1]: < 500 nM
CN1CC[C@](NC(=O)c2ccc3c(C4CCCCC4)c(-c4ccccn4)n(C)c3c2)(C(=O)Nc2ccc(/C=C/C(=O)O)cc2)C1 [Entry 2118]		EC50 [1]: < 500 nM
Cn1c(-c2ccsc2)c(C2CCCC2)c2ccc(C(=O)NC3(C(=O)Nc4ccc(/C=C/C(=O)O)cc4)CCCC3)cc21 [Entry 6055]	< 500	
Cn1c(-c2ccc(Cl)cc2)c(C2CCCC2)c2ccc(C(=O)NC3(C(=O)Nc4ccc(/C=C/C(=O)O)cc4)CCC3)cc21 [Entry 6045]	< 500	
C/C(=C\c1ccc(NC(=O)C2(NC(=O)c3ccc4c(C5CCCC5)c(-c5cccc(C)n5)n(C)c4c3)CCC2)cc1)C(=O)O [Entry 7022]		EC50 (Huh-7, Table 7): < 500 nM
C/C(=C\c1ccc(NC(=O)C2(NC(=O)c3ccc4c(C5CCCC5)c(-c5cccc(N)c5)n(C)c4c3)CCC2)cc1)C(=O)O [Entry 7014]		EC50 (Huh-7, Table 7): < 500 nM
C/C(=C\c1ccc(NC(=O)C2(NC(=O)c3ccc4c(C5CCCC5)c(-c5cnccn5)n(C)c4c3)CCC2)cc1)C(=O)O [Entry 7038]		EC50 (Huh-7, Table 7): < 500 nM
Cn1c(-c2cccc[n+]2[O-])c(C2CCCCC2)c2ccc(C(=O)NC(C)(C)C(=O)Nc3ccc(/C=C/C(=O)O)cc3)cc21 [Entry 2097]		EC50 [1]: 500 to 5000 nM
Cn1c(-c2ccccn2)c(C2CCCC2)c2ccc(C(=O)NC3(/C=C/c4ccc(/C=C/C(=O)O)cc4)CCCC3)cc21 [Entry 1015]		EC50 [1]: < 500 nM
CC(C)(NC(=O)c1ccc2c(C3CCCCC3)c(-c3ccsc3)[nH]c2c1)C(=O)Nc1ccc(/C=C/C(=O)O)cc1 [Entry 2059]		EC50 [1]: < 500 nM
Cn1c(-c2ccncc2)c(C2CCCC2)c2ccc(C(=O)NC3(C(=O)Nc4ccc(/C=C/C(=O)O)cc4)CCCC3)cc21 [Entry 6066]	< 500	
Cn1c(-c2ccsc2)c(C2CCCC2)c2ccc(C(=O)NC3(C(=O)Nc4ccc(/C=C/C(=O)O)cc4)CCC3)cc21 [Entry 6040]	< 500	

From patent US20060160798A1, “Viral polymerase inhibitors” (Boehringer Ingelheim (Canada) Ltd., priority 2001, published 2006)
